The campaign covered roughly 220,000 compounds. About 16,000 (7.3%) were called active. This list was built around the results that the source calls inconclusive (neither active nor inactive); the mix of calls is not that of the screen. Calls follow the shape of the dose curve; as a rule, active = well fitted inhibition curve with a large enough effect (not every such curve was filed as active); inconclusive = small, poorly fitted or top-dose-only effect, or another doubt; inactive = no such curve, though single readings can be large or run the other way. Potencies of inconclusive entries are left out as doubtful fits.
Target: Aldehyde dehydrogenase 1A1 (Homo sapiens) (UniProt P00352)
UniProt P00352, sequence (P00352 whole entry, looked up): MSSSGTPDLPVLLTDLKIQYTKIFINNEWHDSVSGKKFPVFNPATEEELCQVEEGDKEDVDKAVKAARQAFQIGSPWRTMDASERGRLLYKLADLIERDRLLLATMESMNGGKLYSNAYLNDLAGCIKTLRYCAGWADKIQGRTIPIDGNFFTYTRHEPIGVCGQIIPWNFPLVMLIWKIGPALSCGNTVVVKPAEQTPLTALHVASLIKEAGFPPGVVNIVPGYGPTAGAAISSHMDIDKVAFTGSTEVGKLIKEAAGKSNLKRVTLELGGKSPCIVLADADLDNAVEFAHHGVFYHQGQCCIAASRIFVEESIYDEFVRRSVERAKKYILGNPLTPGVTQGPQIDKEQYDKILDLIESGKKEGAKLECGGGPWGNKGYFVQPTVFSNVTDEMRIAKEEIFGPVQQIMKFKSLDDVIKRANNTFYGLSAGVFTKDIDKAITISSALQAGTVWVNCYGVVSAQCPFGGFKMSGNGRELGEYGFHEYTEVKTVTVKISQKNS
Assay: qHTS Assay for Inhibitors of Aldehyde Dehydrogenase 1 (ALDH1A1);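 as to activity, negative = inhibition: plate controls were no enzyme wells and a reference inhibitor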
Settings: Purified ALDH1A1, NADH fluorescence, propionaldehyde substrate; series mostly up to 75.3 µM; activity, negative = inhibition: at the top concentration
Potency is read from the fitted curve at half-maximal effect; tags tell the direction and shape of the fitted curve.

SMILES	Potency	activity, negative = inhibition
NCCNS(=O)(=O)c1cccc2c(Cl)cccc12	inactive	–
Cc1nc(NC(=O)c2ccccc2)sc1-c1csc(N)n1	inconclusive [inhibitor, single point]	–
COc1ccc(C2=CC(c3ccco3)n3ncnc3N2)cc1 (stereo unspecified)	inconclusive [inhibitor, partial curve]	–
COc1ccc(/C=N/Nc2cc(=O)n(C)c(=O)n2C)cc1OC	inconclusive [inhibitor, single point]	–
Cc1[nH]c2ccc(C(=O)NCC(C)(C)N3CCOCC3)cc2c1C	inconclusive [inhibitor, single point]	–
Cc1[nH]nc(SCC(=O)N2CCCCC2)c1[N+](=O)[O-]	inconclusive [inhibitor, single point]	–
Cc1ccc(/C=C/C(=O)N2CC(C)CC(C)C2)o1 (stereo unspecified)	active: 10 µM	–
Cc1ccc(NC(=O)Cn2cccc2)c(C)c1	–	inactive: -0.899%
Cc1nn(-c2ccccc2)c2nc(-c3ccccc3)cc(C(=O)N3CCOCC3)c12	inconclusive [inhibitor, partial curve]	–
Cc1nn(-c2ccc(Cl)nn2)c(=O)c2ccccc12	–	inactive: -3.06%
CN1CCN(C(=S)Nc2ccccc2Cl)CC1	–	inactive: -6.31%
Cc1ccc(-c2cnc(SCC(=O)N3CCCc4ccccc43)n2C)cc1	inconclusive [inhibitor, partial curve]	–
CCn1c(=O)cc(OCC(=O)N(C)c2ccccc2F)c2ccccc21	inconclusive [inhibitor, single point]	–
CCOC(=O)N1CCN(Cc2cc(=O)oc3ccc4ccccc4c23)CC1	inconclusive [inhibitor, partial curve]	–
Cc1ccc(NC(=O)c2sc(Cl)nc2-c2ccccc2)cc1C	–	inactive: -7.13%
CNS(=O)(=O)c1cccc(C(=O)OCc2cc(C(C)=O)ccc2OC)c1	inconclusive [inhibitor, single point]	–
CCC1=NN(C(=O)COc2ccccc2)C(O)(c2ccc(Br)cc2)C1 (stereo unspecified)	–	inactive: -1.66%
COc1ccc(Cn2c(SCc3ccccc3C)nc3cc(OC)c(OC)cc3c2=N)cc1	inconclusive [inhibitor, partial curve]	–
CCSc1nnc(NC(=O)CSc2nnc(-c3c[nH]c4ccccc34)n2CC)s1	inconclusive [inhibitor, partial curve]	–
CCC(C)[C@H](N)c1cn([C@@H](Cc2cc3ccccc3[nH]2)C(=O)N2CCNCC2)nn1 (stereo partly specified)	–	inactive: 0.547%
CCOC(=O)COc1ccc2c(C)cc(=O)oc2c1C(=O)c1ccccc1	inconclusive [inhibitor, partial curve]	–
